Results as given in PubChem BioAssay AID686978 (National Center for Advancing Translational Sciences (NCATS), 2013).
The campaign covered roughly 420,000 compounds. About 64,000 (15%) were called active. Inconclusive results, whose numbers are uncertain, are shown with a selection of clear calls. Calls come from the whole dose curve; as a rule, active = well fitted inhibition curve with a large enough effect; inconclusive = small, poorly fitted or top-dose-only effect; inactive = flat fitted curve, though single readings scatter. Potencies of inconclusive entries are left out as doubtful fits.
Potency is the fitted concentration of half-maximal effect; tags give direction and shape of the fitted curve.

Test: qHTS for Inhibitors of human tyrosyl-DNA phosphodiesterase 1 (TDP1): qHTS in cells in absence of CPT; note: nearly all actives have a fitted effect of over 55% in size
Conditions: DT40 Tdp1-/- hTDP1 cells, no CPT, ATP luminescence, 48 h; series mostly up to 46.2 µM
Procedure, shortened: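 Stably hTDP1-transfected Tdp1-null chicken DT40 cells were treated with library compounds minus camptothecin and grown for at least 48 hr at 37 °C, after which cellular ATP was quantified by luminescence.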
In the case of CCOC(=O)C1=C(C)NC(C)=C(C(=O)OCC)C1c1ccccc1/C=C/C(=O)OC(C)(C)C, the Potency is reported as inconclusive [inhibitor, full curve, poor fit].
For COCc1cc(C)nc2sc(C(=O)Nc3ccc(C(=O)OC)cc3)c(N)c12, the Potency was inconclusive [inhibitor, single point].
In the case of O=C(NC(=S)NNC(=O)c1ccco1)c1ccccc1, the Potency is reported as active: 16.4 µM.
With COC(=O)c1cn(CCOc2ccc(C)cc2)c2ccccc12 the Potency was inconclusive [inhibitor, partial curve, poor fit].
With Cc1ccc(-c2nc3cc(NC(=O)c4cc5ccccc5o4)ccc3o2)cc1 the Potency was inconclusive [inhibitor, single point].
In the case of CC(=O)c1sc(NC(=O)c2cccc3ccccc23)nc1C, the Potency is reported as “inactive”.
For O=C(CC1SC(=Nc2ccc(OC(F)F)cc2)N(CCN2CCOCC2)C1=O)Nc1ccccc1 (stereo not given), the Potency was inconclusive [inhibitor, single point].
In the case of O=C1c2ccccc2C(=O)N1CCc1c[nH]c2ccccc12, the Potency is reported as inconclusive [inhibitor, partial curve].
With COc1ccc(C)cc1NC(=O)c1[nH]c(C)c(C(C)=O)c1C the Potency was inconclusive [inhibitor, single point].
For CC(Sc1nnc2c(n1)C1CCC2(C)C1(C)C)C(=O)Nc1ccccc1 (stereo not given), the Potency was inconclusive [inhibitor, single point].
In the case of CC(=O)Nc1ccc(Oc2sc(C(=O)c3ccccc3)c(N)c2C#N)cc1, the Potency is reported as inconclusive [inhibitor, single point].
In the case of CCOc1ccc(N=Cc2ccc3ccccc3c2)cc1, the Potency is reported as “inactive”.
In the case of O=C(C1CCCN(S(=O)(=O)c2cccc3cccnc23)C1)N1CCN(c2ccc(F)cc2)CC1 (stereo not given), the Potency is reported as inconclusive [inhibitor, single point].
In the case of Nc1ncnc2c1C1(CCCCC1)Cc1ccccc1-2, the Potency is reported as inconclusive [inhibitor, single point].
For COc1ccc(/C=C/C(=O)NCCN=C2NS(=O)(=O)c3ccccc32)cc1, the Potency was “inactive”.
With CCOC(=O)N1CCN(C(=O)c2ccc(CN(c3ccc(C)c(C)c3)S(C)(=O)=O)cc2)CC1 the Potency was active: 23.1 µM.
For CCN1C(=O)c2ccccc2Sc2ccc(NC(=O)COc3ccc(Cl)cc3)cc21, the Potency was active: 18.4 µM.
In the case of COCOCCn1cc(CN2CCS(=O)(=O)N(Cc3ccc(-c4ccc(OC)c(OC)c4)cc3)C(CC(C)C)C2=O)nn1 (stereo not given), the Potency is reported as active: 18.4 µM.
In the case of Nc1nc(SCc2ccccc2[N+](=O)[O-])c2ncn(Cc3ccccc3)c2n1, the Potency is reported as inconclusive [inhibitor, single point].
In the case of CCOc1ccc(-c2cnc(NCc3ccc(C(F)(F)F)cc3)n2C)cc1, the Potency is reported as active: 5.8 µM.
With CN(C)S(=O)(=O)N1CCC(Oc2cccc(C(=O)NC3CCCCCC3)c2)CC1 the Potency was active: 14.6 µM.
For CCOc1ccc(CCNC(=O)C2CC(=O)N(Cc3ccc(OC)cc3)C2)cc1OCC (stereo not given), the Potency was inconclusive [inhibitor, single point].
For CN1CCN(c2ncc3c(n2)CCN(Cc2cc(Br)cs2)C3)CC1, the Potency was inconclusive [inhibitor, single point].
For Cc1cc(C)n(-c2nc3ccccc3c(=O)n2OC2CCCCC2)n1, the Potency was inconclusive [inhibitor, single point].
With CCOC(=O)C1CCCCN1Cc1nc(N2CCN(C(C)=O)CC2)c2ccccc2n1 (stereo not given) the Potency was “inactive”.
With COc1ccc(C(=O)CC2(O)C(=O)Nc3c(C)cccc32)c(OC)c1OC (stereo not given) the Potency was “inactive”.
In the case of CCOc1ccc(CCN2C(=O)C(=O)N([C@@H](Cc3ccc(O)cc3)CN3CCC[C@@H]3CN3C(=O)C(=O)NC[C@@H]3Cc3ccccc3)C[C@@H]2Cc2ccccc2)cc1, the Potency is reported as inconclusive [inhibitor, single point].
For O=C(NC1CCNCC1)C1CCCCC1, the Potency was “inactive”.
For O=C(Nc1cc(S(=O)(=O)N2CCCCC2)ccc1Cl)C1COc2ccccc2O1 (stereo not given), the Potency was inconclusive [inhibitor, single point].
For Cc1cc(C)nc(NC(=NCc2ccc3c(c2)OCO3)NC(=O)Nc2ccccc2)n1, the Potency was active: 4.61 µM.
For CC(Sc1nc(N2CCCCC2)c2c(c1C#N)CCCC2)C(=O)O (stereo not given), the Potency was “inactive”.
In the case of CSc1ccc(C2c3[nH]c4ccccc4c3CCN2C(=O)c2ccnn2C)cc1 (stereo not given), the Potency is reported as inconclusive [inhibitor, single point].
For CCCCNC(=O)C1(C)CCCCN1C(=O)c1ccc(OC)c(C(F)(F)F)c1 (stereo not given), the Potency was inconclusive [inhibitor, partial curve].
With O=C(COc1ccc(C(=O)O)cc1)Nc1cccc(C(F)(F)F)c1 the Potency was “inactive”.
With Cc1ccc(Sc2ccc(N3CCC(C(=O)Nc4cc(C)cc(C)c4)CC3)nn2)cc1 the Potency was “inactive”.
With COc1ccc(C(=O)CC(=O)c2ccc(C(C)(C)C)cc2)cc1 the Potency was inconclusive [inhibitor, partial curve].
For Cc1ccc2c(c1)CCCN2CC(=O)Nc1cc(S(=O)(=O)N2CCCC2)ccc1Cl, the Potency was active: 14.6 µM.
With O=C(NCc1ccccc1)c1ccc2c(c1)N(Cc1ccccc1F)C(=O)c1ccccc1S2=O (stereo not given) the Potency was inconclusive [inhibitor, partial curve, poor fit].
For CN(C)c1ccc(/C=c2\[nH]c(=O)/c(=C/c3ccc(N(C)C)cc3)[nH]c2=O)cc1, the Potency was “inactive”.
For CC(=O)Nc1ccc(-c2ccnc3c2CC(C(=O)Nc2cccnc2)O3)cc1 (stereo not given), the Potency was active: 3.66 µM.
With Cc1c(Cl)cccc1-n1ncc(C(=O)NCCN2CCN(C)CC2)c1C1CCN(C(=O)OC(C)(C)C)CC1 the Potency was active: 25.9 µM.
With COc1cccc(CN(C(=O)COc2ccc(Cl)c(C)c2)C2CCS(=O)(=O)C2)c1 (stereo not given) the Potency was inconclusive [inhibitor, single point].
For OC(CSc1ccccc1Cl)CN1CCN(c2ccccc2F)CC1 (stereo not given), the Potency was inconclusive [inhibitor, single point].
For C/C(=N\NC(=O)CSc1nc2ccccc2s1)c1cccnc1, the Potency was inconclusive [inhibitor, single point].
With COc1ccc(NC(=O)O/N=C/c2ccccc2)cc1 the Potency was “inactive”.
In the case of N#CCCn1c(=O)c(CCc2ccccc2)nc2cnc(OCc3ccccc3)nc21, the Potency is reported as inconclusive [inhibitor, single point].
For O=C(Nc1ccccc1)c1ccc(NCCN2C(=O)CCC2=O)c([N+](=O)[O-])c1, the Potency was inconclusive [inhibitor, partial curve].
With COc1nc(N2CCOCC2)nc(-n2cccc2)n1 the Potency was inconclusive [inhibitor, single point].
With N#Cc1cc2cc3ccccc3nc2n2c(=O)c3ccccc3nc12 the Potency was “inactive”.
With CC(=O)NC(c1ccc(F)c(F)c1)c1nc(-c2ccc(F)c(Cl)c2)cs1 (stereo not given) the Potency was “inactive”.
In the case of COc1ccccc1C(=O)NCCOc1ccc(C(C)(C)C)cc1, the Potency is reported as active: 20.6 µM.
For CCOc1ccccc1N(CC(=O)NCCSc1ccccn1)S(=O)(=O)c1ccccc1, the Potency was inconclusive [inhibitor, single point].
In the case of O=C(Nc1ccc(Cl)cc1)c1cnn2c1NC(c1ccccc1)=CC2c1ccccc1 (stereo not given), the Potency is reported as inconclusive [inhibitor, single point].
In the case of COc1ccc(C(=O)NN/C=C/C(=O)c2ccc(Br)cc2)cc1, the Potency is reported as inconclusive [inhibitor, single point].
For COc1cc(NC2c3ncccc3C(=O)N2Cc2ccco2)cc(OC)c1OC (stereo not given), the Potency was inconclusive [inhibitor, full curve, poor fit].
For Cc1ccc(-n2c(Cc3cccs3)nnc2SCC(=O)OC(C)C)cc1, the Potency was “inactive”.
In the case of COc1cccc(C(=O)NNC(=O)c2ccc3ccccc3c2O)c1, the Potency is reported as active: 9.2 µM.
With CCOC(=O)C1(CCOC)CCN(Cc2nc(-c3cccs3)oc2C)CC1 the Potency was inconclusive [inhibitor, partial curve, poor fit].
In the case of CCc1ccc(NC(=O)CSc2nc3c([nH]c4ccccc43)c(=O)n2-c2ccc(C)cc2)cc1, the Potency is reported as inconclusive [inhibitor, partial curve, poor fit].
With Cc1cccc(C2c3[nH]c4ccccc4c3CCN2C(=O)c2nn(C)c(=O)c3ccccc23)n1 (stereo not given) the Potency was inconclusive [inhibitor, single point].
For NNc1ccc([N+](=O)[O-])c2[nH][nH]c(=O)c12, the Potency was “inactive”.
For Oc1c(N=NC(=S)Nc2ccccc2F)c2ccccc2n1Cc1ccc(Cl)cc1, the Potency was active: 5.8 µM.
For Nc1cc(Oc2cccnc2)cc([N+](=O)[O-])c1, the Potency was inconclusive [inhibitor, single point].
In the case of Cc1ccc(S(=O)(=O)NC2OC(=O)C(Cl)=C2Cl)cc1 (stereo not given), the Potency is reported as inconclusive [inhibitor, single point].
For O=C1C(N2CCOCC2)=C(n2nnc3ccccc32)C(=O)c2ccccc21, the Potency was active: 3.26 µM.
With FC(F)(F)c1nnc(-c2ccccc2)nc1N1CCOCC1 the Potency was “inactive”.
With Cc1ccc(NC(=O)c2ccc(NC(=O)N3CCSc4ncccc43)cc2)c(Cl)c1 the Potency was inconclusive [inhibitor, full curve].
For CC1CCCCC12NC(=O)N(CC(=O)N(C)Cc1nc3ccccc3c(=O)[nH]1)C2=O (stereo not given), the Potency was “inactive”.
In the case of O=C(Cc1cccc(NC(=O)C2CCN(C(=O)CCc3ccccc3)CC2)c1)Nc1cccc(C(=O)N2CCCCC2)c1, the Potency is reported as active: 18.4 µM.
With O=C(CCCN1C(=O)/C(=C/c2cccs2)SC1=S)Nc1cc([N+](=O)[O-])ccc1O the Potency was “inactive”.
